63 compounds from PubChem BioAssay AID1508624 (National Center for Advancing Translational Sciences (NCATS), 2021) can be followed below.

Out of some 48,000 compounds screened, about 120 (0.25%) were called active. Inconclusive results (about 4%) are left out. Calls come from the whole dose curve; as a rule, active = well fitted activation curve with a large enough effect; inconclusive = small, poorly fitted or top-dose-only effect, or another doubt; inactive = no such curve, though single readings can be large or run the other way. This is one part of the list.

The test is described as follows: Primary qHTS for Identification of Small Molecule Activators of Huntingtin-Antisense Promoter Activity. Note: nearly all actives have a fitted effect of over 55% in size. The settings on record: HEK293 HTT-AS promoter firefly luciferase reporter (activity 0% = vehicle and -100% = no light), 24 h; series mostly up to 57.5 µM; activity change, positive = activation: at the top concentration. Summed up: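 Quantitative HTS used concentration series of up to 57.5 uM final on HEK293 luciferase reporter cells, 24 h at 37 degrees C. Readout was Dual-Glo firefly luminescence.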
On the technique in general: Quantitative high-throughput screening tests each substance at several concentrations.
With `N#Cc1ccccc1NC(=O)C(=O)NCCc1csc2nc(-c3cccc(F)c3)nn12`, the “activity change, positive = activation” value was inactive: -17.5%.
Take `C=CCCCCCCCCC(=O)O`: the “activity change, positive = activation” value was inactive: -5.13%.
To `COc1ccc(OC)c(CNC(=O)CN(c2ccc(C)cc2)S(=O)(=O)N(C)C)c1` belongs inactive: -11.1%; to `Cc1cccc(NC(=O)N2CCN(C)c3ncccc32)c1C`, inactive: -21%; to `CCCN(C(=O)Cn1ncc2c1-c1ccccc1OC2)c1cccc(C)c1`, inactive: -39.1%.
The value for `Cc1cccc(N2CCN(c3ccc(C(=O)O)cc3NC(=O)c3cccc(Cl)c3)CC2C)c1` (stereo not drawn) was inactive: -11.8%; that for `CCc1ccc(-c2nc(SCC(=O)NCC3CCCO3)c(-c3ccc(C)cc3)[nH]2)cc1` (stereo not drawn) was inactive: -9.51%; that for `Cc1cccc(C)c1NC(=O)Cn1c(=O)n(CCCS(=O)(=O)C2CCCCC2)c(=O)c2ccccc21` was inactive: -8.32%.
For the compound `CCOC(=O)C1CCN(c2c(C(=O)c3ccc(OC)cc3)cnc3ccccc23)CC1`, the “activity change, positive = activation” value is inactive: -25%.
To `COc1ccc(CCNC(=O)c2nc(SCc3ccccc3F)ncc2Cl)cc1OC` belongs inactive: -48.5%; to `CSCC[C@@H](C(=O)Nc1cccc(F)c1)N1Cc2ccccc2C1=O`, inactive: -12.3%.
To `CCOCCc1nn2c(=O)cc(COC(=O)Cc3ccccc3)nc2s1` belongs inactive: -10.4%; to `CCOC(=O)c1cc2c(=O)n3ccccc3nc2n(Cc2ccco2)c1=NC(=O)c1ccc(C)c(C)c1`, inactive: -20.2%.
Take `CN(c1ccccc1)S(=O)(=O)c1nnc(NC(=O)COc2ccccc2)s1`: the “activity change, positive = activation” value is inactive: -16.1%.
Consider `O=C(Cn1c(=O)oc2cc(S(=O)(=O)N3CCCCCC3)ccc21)Nc1ccc(F)cc1F`, for which the “activity change, positive = activation” value is inactive: -34.6%.
To `O=C(Nc1cc2c(cc1C(=O)c1cccc(Br)c1)OCCO2)c1ccccc1F` belongs inactive: -26.6%.
The value for `CN(C(=O)Cn1cnc2onc(-c3ccc(F)cc3)c2c1=O)c1ccccc1Cl` was inactive: -16.9%; that for `Cc1cc(C)cc(-n2c(C)cc(C(=O)C(=O)Nc3nnc(C)s3)c2C)c1` was inactive: -9.75%.
With `Cc1cccc(-c2nc(C)c(CCNC(=O)C(=O)Nc3cccc(Cl)c3C)s2)c1`, the “activity change, positive = activation” value was inactive: 15.2%.
In the case of `O=C(Cn1cc(SCc2ccc(C(F)(F)F)cc2)c2ccccc21)N1CCOCC1`, the “activity change, positive = activation” value was inactive: 7.91%.
As to `O=C(NCc1ccccc1)c1cc2sccc2n1Cc1ccc(Cl)cc1`, the “activity change, positive = activation” value was inactive: -12.7%.
The value for `Cc1ccc(-c2nc(-c3cc4c([nH]c3=O)CC(C)(C)CC4=O)sc2C)cc1` was inactive: -13.2%; that for `CCCCSc1nc(-c2ccc(OC)cc2)ccc1C#N` was inactive: -31.1%.
To `COC(=O)c1ccccc1NC(=O)Cn1c(CCC(=O)O)ccc1-c1cccs1` belongs inactive: -30.5%.
Regarding `CCOc1ccc(N(C)C(=O)CS(=O)(=O)c2cccc3nsnc23)cc1`, the “activity change, positive = activation” value was inactive: -8.95%.
The value for `COC(=O)CSc1ncc2c(n1)-c1ccccc1N(Cc1ccccc1C)S2(=O)=O` was inactive: 17.4%; that for `O=C1CCC(N2C(=O)c3ccccc3C2=O)C(=O)N1` (stereo not drawn) was “inactive”.
With `Cc1ccc2occ(CC(=O)N(Cc3ccccc3Cl)C3CCS(=O)(=O)C3)c2c1` (stereo not drawn), the “activity change, positive = activation” value is inactive: -17%.
The value for `CCOC(=O)c1cccc(NC(=O)NCc2cccn2Cc2ccccc2)c1` was inactive: -36.3%.
As for `O=C(CSc1oc(-c2ccccc2)nc1S(=O)(=O)c1ccc(Cl)cc1)Nc1ccc(F)cc1`, the “activity change, positive = activation” value was inactive: 9.53%.
Take `CC(=O)/C=C/C=C1/C2CCC(C2)C1(C)C` (stereo not drawn): the “activity change, positive = activation” value is inactive: -0.203%.
To `CC(=O)c1ccc(NC(=O)CN2C(=O)CCc3ccccc32)cc1` belongs inactive: -2.3%; to `Cc1ccc(Cn2cc(CCC(=O)NC3CCC(C)CC3)c3ccccc32)cc1` (stereo not drawn), inactive: 10.1%; to `CC1CCC(Nc2nc3c(-c4ccc(Cl)cc4)nnn3c3ccccc23)CC1` (stereo not drawn), inactive: -6.99%.
With `CC(=O)Nc1ccc(/C=C/c2nc(-c3ccccc3O)n(-c3ccccc3)n2)cc1`, the “activity change, positive = activation” value was inactive: -15.5%.
To `Cn1c(=O)oc2cc(S(=O)(=O)N3CCCC(C(=O)NCCc4ccc(Cl)cc4)C3)ccc21` (stereo not drawn) belongs inactive: -36.3%; to `COc1ccccc1CNS(=O)(=O)c1ccc2c(c1)NC(=O)C(C)C(=O)N2` (stereo not drawn), inactive: -19.4%.
The value for `Cc1nn2c(=O)cc(COC(=O)c3ccco3)nc2s1` was inactive: -4.27%; that for `COc1cccc(CNCCSc2nnnn2C)c1OCc1ccccc1Cl` was inactive: -21.9%.
To `COc1cccc(CNS(=O)(=O)c2ccc3c(c2)CCN3C(=O)C2CCC2)c1` belongs inactive: -26.4%; to `O=C(Nc1ccc(F)cc1)N1CCN(c2ccccc2F)CC1`, inactive: 18.7%.
For the compound `Cc1cc(=O)[nH]c2nnc(SCc3ccc(F)cc3)n12`, the “activity change, positive = activation” value is inactive: -8.5%.
To `COc1ccc(N2C(=O)CS(=O)(=O)C23C(=O)N(Cc2cccc(F)c2)c2ccccc23)cc1OC` (stereo not drawn) belongs inactive: -25.3%.
To `O=C(CC(c1cccs1)N1Cc2ccccc2C1=O)Nc1ccc(F)c(F)c1` (stereo not drawn) belongs inactive: -13%; to `Cc1ccc(C)c(S(=O)(=O)c2nnn3c2nc(Nc2ccc(C)c(C)c2)c2sccc23)c1`, inactive: -6.31%; to `COc1ccc(Cn2c(SCC(=O)NCc3ccc(Cl)cc3)nc3ccsc3c2=O)cc1`, inactive: -8.58%.
On to `CCOC(=O)c1ccc(-n2c(CCC(=O)O)ccc2-c2ccc(Br)cc2)cc1`, for which the “activity change, positive = activation” value is inactive: -22.5%.
Regarding `CC(C)(C)CC(C)(C)c1ccc(O)c(-n2nc3ccccc3n2)c1`, the “activity change, positive = activation” value is inactive: -4.42%.
To `O=C(NCc1cccs1)c1ccc(Cn2c(SCc3ccccc3)nc3cccnc32)cc1` belongs inactive: -12%; to `O=C(Nc1c(C(=O)N2CCN(c3ccccc3)CC2)oc2ccccc12)c1ccc(Br)o1`, inactive: -16.8%; to `Cc1cc(Cl)ccc1OCC(=O)Nc1c(Cl)ccc2nsnc12`, inactive: -22.5%.
As for `COc1ccc2nc3oc(C(=O)N4CCN(c5cc(C)ccc5C)CC4)cc3cc2c1`, the “activity change, positive = activation” value was inactive: 25.4%.
To `CCC(=O)N1CCc2cc(S(=O)(=O)CCC(=O)Nc3ccc(OC(F)(F)F)cc3)ccc21` belongs inactive: -24.9%.
The value for `COc1ccc(CC(=O)Nc2sc3c(c2C(=O)Nc2cccc(Cl)c2)CCCCC3)cc1` was inactive: -79.3%; that for `COc1ccccc1N1CCN(C(=O)C(CCSC)NS(=O)(=O)c2ccc3c(c2)oc(=O)n3C)CC1` (stereo not drawn) was inactive: -24%.
On to `CC(C)Oc1ccc(CNC(=O)CCCN2C(=O)CCn3nc(-c4cccn4C)cc32)cc1`, for which the “activity change, positive = activation” value was inactive: -5.87%.
To `O=C1NCCN1CCN1CCC(c2cn(-c3ccc(F)cc3)c3ccc(Cl)cc23)CC1` belongs inactive: -39.9%; to `O=C(c1ccco1)n1nc(-c2ccccc2)nc1NCc1ccc(Cl)cc1`, inactive: 1.19%.
To `Cc1nn(-c2ccccc2)c2c1N(CCCC(=O)NCc1ccc(N(C)C)cc1)C(=O)CS2` belongs inactive: -17.8%.
In the case of `CCc1ccc(NCc2cc3ccc(OC)cc3n(CC(=O)Nc3ccc(F)cc3F)c2=O)cc1`, the “activity change, positive = activation” value is inactive: -1.42%.
The value for `CCC(=O)N1c2ccccc2CC1C(=O)N1CCN(c2cccc(Cl)c2)CC1` (stereo not drawn) was inactive: -14%; that for `CCOc1ccc(NC(=O)C2CC(=O)NC(=Nc3ccc(Cl)c(Cl)c3)S2)cc1` (stereo not drawn) was inactive: -21.2%; that for `Cc1c(C(=O)NCc2ccccc2)sc2nc3n(c(=O)c12)CCCCC3` was inactive: 25.6%.
